{"source": "PubChem BioAssay AID1347417", "about": "(National Center for Advancing Translational Sciences (NCATS), 2020)", "note": "The campaign covered roughly 120,000 compounds. About 5,300 (4.4%) were called active. Inconclusive results, whose numbers are uncertain, are shown with a selection of clear calls. Calls follow the shape of the dose curve; as a rule, active = well fitted inhibition curve with a large enough effect; inconclusive = small, poorly fitted or top-dose-only effect; inactive = no such curve, though single readings can be large or run the other way. Potencies of inconclusive entries are doubtful fits and often do not repeat. Potency is read from the fitted curve at half-maximal effect; tags tell the direction and shape of the fitted curve."}
{"assay": "qHTS Primary assay for Inhibitors of Plasmodium falciparum Dd2 growth in vitro; also: nearly all actives have a fitted effect of over 65% in size", "settings": "P. falciparum Dd2 growth, SYBR Green, 72 h; series mostly up to 28.9 µM", "summary_of_the_method": "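Infected erythrocytes (Dd2, 0.3% parasitemia, 2.5% hematocrit final) are added to compound in RPMI-1640/Albumax II medium, grown 72 h at 37C in low oxygen, then lysed with saponin/Triton-X containing SYBR Green and read by fluorescence.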"}
{"smiles": "Cc1ccc(OCc2nc(C3CCCN3C(=O)Nc3ccc(C)c(F)c3)no2)cc1", "note": "(stereo unspecified)", "Potency": "inconclusive: 20 µM [inhibitor, partial curve, poor fit]"}
{"smiles": "COc1ccc(NC(=O)CSc2nc3c(oc4ccccc43)c(=O)n2Cc2ccco2)cc1Cl", "Potency": "inconclusive: 11.2 µM [inhibitor, partial curve, poor fit]"}
{"smiles": "CN(C)c1ccc(C(=O)N2CCN(C(=O)C3CCCCC3)[C@H](C(=O)N[C@@H](CC3CCCCC3)C(N)=O)C2)cc1", "Potency": "inconclusive: 7.08 µM [inhibitor, single point]"}
{"smiles": "CC(C)NC(=O)N1CCC[C@@H](O)[C@H](NC(=O)c2ccc(OCCN3CCCC3)cc2)C1", "Potency": "inactive"}
{"smiles": "Cc1ccc(Cl)cc1-n1ncc2c(N3CCN(Cc4ccccc4)CC3)ncnc21", "Potency": "inconclusive: 10 µM [inhibitor, single point]"}
{"smiles": "CCOC(=O)c1c(NC(=O)c2ccc(S(=O)(=O)N(C)C3CCCCC3)cc2)sc2c1CCN(C(C)C)C2", "Potency": "active: 11.2 µM"}
{"smiles": "Cc1cnc(C2CCOCC2)n1C1CCCN(S(=O)(=O)c2cn(C)cn2)C1", "note": "(stereo unspecified)", "Potency": "inactive"}
{"smiles": "O=C(Cc1ccc(F)cc1F)N1CCN(Cc2ccccc2)CC(O)C1", "note": "(stereo unspecified)", "Potency": "inconclusive: 10 µM [inhibitor, single point]"}
{"smiles": "Cc1nc(N2CCC(C(=O)NC3CCC(C)CC3)CC2)cc(C(F)(F)F)n1", "note": "(stereo unspecified)", "Potency": "inactive"}
{"smiles": "COC(=O)C1=C(C)N=C2SC=C(CC(=O)N3CCCCC3C)N2C1c1ccc(OC)cc1", "note": "(stereo unspecified)", "Potency": "inconclusive: 0.398 µM [inhibitor, partial curve, poor fit]"}
{"smiles": "COC(=O)CNC(=O)c1nc(-c2ccc(Cl)nc2)c2cnccn12", "Potency": "inactive"}
{"smiles": "O=C1CCN(Cc2c[nH]c3ccccc23)CCCC(C(=O)NCc2ccccc2)CCN1", "note": "(stereo unspecified)", "Potency": "inconclusive: 7.94 µM [inhibitor, partial curve]"}
{"smiles": "COC(=O)c1ccc(NC(=O)Cn2c(-c3cnccn3)nc(C)c(C)c2=O)cc1", "Potency": "inconclusive: 17.8 µM [inhibitor, single point]"}
{"smiles": "O=C(CCOc1ccccc1)N(Cc1cccnc1)c1nc2ccc(Cl)cc2s1", "Potency": "inconclusive: 14.1 µM [inhibitor, single point]"}
{"smiles": "CC1(C)[C@H]2CC[C@@H](CNC(=O)c3ccccc3F)[C@@H]1C2", "Potency": "inconclusive: 15.8 µM [inhibitor, single point]"}
{"smiles": "COc1ccccc1CNC1(Cc2cc(-c3ccccn3)on2)COC1", "Potency": "inconclusive: 31.6 µM [inhibitor, single point]"}
{"smiles": "COc1ccc(OC)c(NC(=O)CN2C(=O)CC(C)Sc3ccccc32)c1", "note": "(stereo unspecified)", "Potency": "inconclusive: 8.91 µM [inhibitor, partial curve]"}
{"smiles": "COc1cccc(N2C(=O)NC(=NC3CCCC3)C23CCN(CC2CCCCC2)C3)c1", "note": "(stereo unspecified)", "Potency": "active: 10 µM"}
{"smiles": "CNc1nccc(N2CCC(CC(=O)N3CCN(c4ccccc4C)CC3)CC2)n1", "Potency": "inactive"}
{"smiles": "CCOC(=O)c1sc2ccccc2c1S(=O)(=O)Nc1ccc(C(C)=O)cc1", "Potency": "inactive"}
{"smiles": "CCN1C(=O)C2(CCN(S(=O)(=O)c3ccc4c(c3)OCCO4)CC2)c2ccccc21", "Potency": "inconclusive: 10 µM [inhibitor, single point]"}
{"smiles": "CCc1ccc(N(CC)C(=O)Cn2nc(Cc3cccnc3)c3ccccc3c2=O)cc1", "Potency": "inconclusive: 12.6 µM [inhibitor, single point]"}
{"smiles": "CC(=O)Nc1ccc(C2(C(=O)N3CCCCC3)CCC2)cc1", "Potency": "inconclusive: 17.8 µM [inhibitor, partial curve, poor fit]"}
{"smiles": "O=C(Nc1ccccc1F)N1CCC2(CCCN(C3CCCCC3)C2=O)C1", "note": "(stereo unspecified)", "Potency": "inactive"}
{"smiles": "Cc1nnc2n1CCC(NC(=O)Cc1cccs1)CC2", "note": "(stereo unspecified)", "Potency": "inactive"}
{"smiles": "O=C1N(Cc2ccccc2Cl)c2ccccc2C1(O)c1c[nH]c2ccccc12", "note": "(stereo unspecified)", "Potency": "inconclusive: 10 µM [inhibitor, single point]"}
{"smiles": "CCCc1noc(-c2ccn3c(CNC(=O)Cc4ccc(Cl)cc4)nnc3c2)n1", "Potency": "inconclusive: 1 µM [inhibitor, partial curve, poor fit]"}
{"smiles": "O=C(CCC1CCN(c2cc(NC3CC3)ncn2)CC1)NCc1cc(F)cc(F)c1", "Potency": "inconclusive: 17.8 µM [inhibitor, single point]"}
{"smiles": "COc1ccc(C(=O)N[C@@H]2CN(C)C[C@H]2CN(C)C)c(C)c1", "Potency": "inactive"}
{"smiles": "CCCCSc1nnc2n(-c3ccc(OC)cc3)c(=O)c3c4c(sc3n12)COC(C(C)C)C4", "note": "(stereo unspecified)", "Potency": "inconclusive: 17.8 µM [inhibitor, single point]"}
{"smiles": "O=C(NCc1ccco1)C1CCc2nc(N3CCN(C(=O)C4CCC4)CC3)sc2C1", "note": "(stereo unspecified)", "Potency": "inactive"}
{"smiles": "COc1ccccc1CC(=O)NC1CCN(c2cnn(C)c(=O)c2)CC1", "Potency": "inactive"}
{"smiles": "O=C(Cn1ccn2nc(-c3ccccc3)c(CO)c2c1=O)NCCC1=CCCCC1", "Potency": "inactive"}
{"smiles": "COc1ccc(C(=O)N2CCC3(CC2)N=C(c2ccccc2)NO3)cc1", "Potency": "inconclusive: 8.91 µM [inhibitor, partial curve, poor fit]"}
{"smiles": "CCCCCCNC(=O)Cc1csc2nc(C)c(-c3cc(C)n(-c4cccc(C)c4)n3)c(=O)n12", "Potency": "active: 2 µM"}
{"smiles": "Cc1ccc(C2c3cc(OCc4nc(C(=O)NC5CC5)co4)ccc3CCN2C(=O)C2CC2)cc1", "note": "(stereo unspecified)", "Potency": "inconclusive: 2.82 µM [inhibitor, single point]"}
{"smiles": "CC(=O)c1ccc(N2CCN(c3ncnc4c3c(-c3ccccc3)cn4-c3ccc(Cl)cc3)CC2)cc1", "Potency": "inconclusive: 3.98 µM [inhibitor, partial curve, poor fit]"}
{"smiles": "CCCN(CCC)C(=O)c1ccc(CN2C(=O)NC3(CCS(=O)(=O)CC3)C2=O)cc1", "Potency": "inconclusive: 20 µM [inhibitor, single point]"}
{"smiles": "Cc1ccc(NC(=O)Nc2ccc(C)n(CC(=O)NCCN3CCCC3)c2=O)cc1", "Potency": "inactive"}
{"smiles": "Cc1noc(-c2cn(C3CCN(C(=O)c4ccccc4)CC3)nn2)n1", "Potency": "inactive"}
{"smiles": "Cc1cc2c(-c3cccc(S(C)(=O)=O)c3)nc(-c3c(C)noc3C)cc2[nH]1", "Potency": "inactive"}
{"smiles": "CCOC(=O)c1cc(S(=O)(=O)Nc2cc(F)ccc2C)[nH]n1", "Potency": "inconclusive: 3.55 µM [inhibitor, partial curve]"}
{"smiles": "COc1ccccc1NC(=O)c1c(NCc2ccc(C)o2)sc2c1CCCCC2", "Potency": "inconclusive: 20 µM [inhibitor, single point]"}
{"smiles": "CCOC(=O)N1CCc2c(sc3c2C(=O)NC(c2cc(OC)c(OC)c(OC)c2)N3)C1", "note": "(stereo unspecified)", "Potency": "inconclusive: 17.8 µM [inhibitor, single point]"}
{"smiles": "CCc1ccc(NC(=O)Cn2c(=O)n(CCC(C)C)c(=O)c3cccnc32)cc1", "Potency": "inconclusive: 11.2 µM [inhibitor, single point]"}
{"smiles": "CC1=C(C(=O)Nc2ccc(C)cc2C)C(c2cccs2)n2nc(SCc3cccc(C)c3)nc2N1", "note": "(stereo unspecified)", "Potency": "inactive"}
{"smiles": "FC(F)(F)c1ccc2c(c1)nc1n2[C@@H](CNC2CCOCC2)COC1", "Potency": "inactive"}
{"smiles": "COc1ccc(-n2cc(C(=O)NCCc3cc(OC)ccc3OC)c3ccccc3c2=O)cc1", "Potency": "inconclusive: 6.31 µM [inhibitor, partial curve, poor fit]"}
{"smiles": "COCC(=O)N1CCN(C(=O)Nc2ccccc2)C[C@@H]1C(=O)N[C@@H](Cc1ccc(OC)cc1)C(=O)OC", "Potency": "inconclusive: 11.2 µM [inhibitor, partial curve]"}
{"smiles": "C=CCNc1nc(C2CC2)nc2c1CCN(C(=O)c1cscn1)CC2", "Potency": "inactive"}
{"smiles": "CCOC(=O)c1c(C)[nH]c(C)c1S(=O)(=O)N1CCCC(C(=O)NCc2ccc(N(C)C)cc2)C1", "note": "(stereo unspecified)", "Potency": "inconclusive: 17.8 µM [inhibitor, single point]"}
{"smiles": "COc1ccc(-n2c(=O)c3c(c4cc(OC)ccc4n3C)n(Cc3cccc(C)c3)c2=O)cc1", "Potency": "inconclusive: 20 µM [inhibitor, partial curve, poor fit]"}
{"smiles": "OC[C@@H]1CNC[C@H]1C1CCN(C2CCOCC2)CC1", "Potency": "inactive"}
{"smiles": "Cc1cccc2c1N(Cc1ccccc1OCCC(C)C)C(=O)C2=O", "Potency": "active: 10 µM"}
{"smiles": "CCOc1cc(=O)n2c(c1C(=O)Nc1cccc(Cl)c1)CCCC2", "Potency": "inconclusive: 20 µM [inhibitor, single point]"}
{"smiles": "COc1ccccc1CNC(=O)c1ccc2c(c1)N(C)C1CCCN1C2=O", "note": "(stereo unspecified)", "Potency": "inactive"}
{"smiles": "CCOC(=O)c1noc2nc(C)n(CC(=O)NC(C)CC)c(=O)c12", "note": "(stereo unspecified)", "Potency": "inconclusive: 0.0089 µM [inhibitor, full curve, poor fit]"}
{"smiles": "O=C(c1ccccc1OCC1CCCN(Cc2ccncc2F)C1)N1CCOCC1", "note": "(stereo unspecified)", "Potency": "inactive"}
{"smiles": "CC(C)S(=O)(=O)c1ncc(CN(CCO)Cc2ccccc2)n1CCc1ccccc1", "Potency": "inconclusive: 10 µM [inhibitor, single point]"}
{"smiles": "COc1ccc(C(=O)N2CCC3(CC2)OC(=O)N(Cc2ccc(O)cc2)C3(C)c2ccccc2)cc1", "note": "(stereo unspecified)", "Potency": "inconclusive: 2.51 µM [inhibitor, single point]"}
{"smiles": "Cc1cc(N2CCC(C)CC2)nc2ccc(NC(=O)Cc3c(F)cccc3Cl)cc12", "Potency": "inconclusive: 10 µM [inhibitor, single point]"}
{"smiles": "Cc1ccc(Cn2cc(S(=O)(=O)c3cccc(Cl)c3)c(=O)c3cc(F)c(N4CCCCC4)cc32)cc1", "Potency": "inconclusive: 17.8 µM [inhibitor, single point]"}
{"smiles": "CCc1ccc(NC(=O)CN(c2ccc(Cl)cc2)S(=O)(=O)c2ccsc2C(=O)OC)cc1", "Potency": "active: 11.2 µM"}
{"smiles": "CN1CCCCCCN(C(=O)c2ccc3ncccc3c2)[C@H]2CCC[C@H]2C1=O", "Potency": "inconclusive: 3.55 µM [inhibitor, full curve, poor fit]"}
{"smiles": "CCOc1ccc(NC(=O)c2c(NCc3cccc(OC)c3OC)sc3c2CCC3)cc1", "Potency": "inconclusive: 11.2 µM [inhibitor, single point]"}
{"smiles": "Nc1c(C(=O)Nc2ccccc2Cl)c2ccccn2c1C(=O)c1ccccc1", "Potency": "inactive"}
